{"source": "paper PMC4336329", "about": "(PLoS ONE, 2015)", "note": "Among all 310,000 compounds or so, about 14,000 (4.5%) showed an effect of 50% or more. Effects have a minus sign here. The list shows a part of the results.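 Note: peak tail current of the secondary pulse compared with the same well before compound.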"}
{"target": "human ether-à-go-go-related gene (hERG) potassium channel (human, UniProt Q12809)", "sequence (Q12809 whole entry, looked up)": "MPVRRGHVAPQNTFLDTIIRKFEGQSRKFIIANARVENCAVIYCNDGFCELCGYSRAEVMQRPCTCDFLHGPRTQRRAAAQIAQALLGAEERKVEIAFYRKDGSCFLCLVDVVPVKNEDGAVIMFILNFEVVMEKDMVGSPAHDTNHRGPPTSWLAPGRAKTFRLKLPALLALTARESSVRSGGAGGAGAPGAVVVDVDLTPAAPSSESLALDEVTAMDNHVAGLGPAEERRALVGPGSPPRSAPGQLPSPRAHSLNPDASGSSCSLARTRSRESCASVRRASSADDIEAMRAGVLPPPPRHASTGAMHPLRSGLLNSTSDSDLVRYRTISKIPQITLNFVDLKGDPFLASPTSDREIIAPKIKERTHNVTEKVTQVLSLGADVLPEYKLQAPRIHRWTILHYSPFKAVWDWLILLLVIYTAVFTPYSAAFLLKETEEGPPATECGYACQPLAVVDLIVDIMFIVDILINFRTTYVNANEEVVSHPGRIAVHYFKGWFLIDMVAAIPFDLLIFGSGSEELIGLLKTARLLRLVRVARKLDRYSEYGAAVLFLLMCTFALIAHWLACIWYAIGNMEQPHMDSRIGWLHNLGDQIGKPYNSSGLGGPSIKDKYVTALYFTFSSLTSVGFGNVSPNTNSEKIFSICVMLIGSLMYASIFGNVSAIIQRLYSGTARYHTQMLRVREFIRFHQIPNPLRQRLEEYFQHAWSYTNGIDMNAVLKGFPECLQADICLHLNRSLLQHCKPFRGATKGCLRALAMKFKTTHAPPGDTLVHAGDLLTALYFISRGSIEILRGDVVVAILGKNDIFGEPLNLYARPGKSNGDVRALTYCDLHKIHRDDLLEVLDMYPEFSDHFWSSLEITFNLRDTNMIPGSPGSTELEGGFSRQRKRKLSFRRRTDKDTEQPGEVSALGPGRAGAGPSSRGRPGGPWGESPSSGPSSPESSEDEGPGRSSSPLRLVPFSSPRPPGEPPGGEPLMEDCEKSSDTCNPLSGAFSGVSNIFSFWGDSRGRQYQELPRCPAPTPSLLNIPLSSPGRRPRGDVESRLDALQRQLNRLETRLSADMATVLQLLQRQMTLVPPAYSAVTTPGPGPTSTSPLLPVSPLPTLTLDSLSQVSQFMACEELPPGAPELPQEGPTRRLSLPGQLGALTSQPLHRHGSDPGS", "assay": "primary screen, population patch clamp on CHO cells stably expressing hERG", "units": {"hERG current change (%, negative = inhibition) at 10uM": "%"}}
{"smiles": "CC1(C)Cc2c(c(N3CCOCC3)nc3sc(C(N)=O)c(N)c23)CO1", "hERG current change (%, negative = inhibition) at 10uM": -5.66}
{"smiles": "COc1ccc(C2C=C(c3ccc(F)cc3)NC(=S)N2)cc1OC", "note": "(stereo not shown)", "hERG current change (%, negative = inhibition) at 10uM": -2.12}
{"smiles": "O=S(=O)(NCC1CCCO1)c1cc(Br)c(Br)s1", "note": "(stereo not shown)", "hERG current change (%, negative = inhibition) at 10uM": -19.2}
{"smiles": "COc1cc(/C=C/C(=O)OC(C)C(=O)c2ccccc2)cc(OC)c1OC", "note": "(stereo not shown)", "hERG current change (%, negative = inhibition) at 10uM": -1.47}
{"smiles": "COCCNC(=O)c1c(CSc2ccccc2)noc1C(=O)NCc1ccccc1", "hERG current change (%, negative = inhibition) at 10uM": -13.6}
{"smiles": "O=c1c2ccccc2c(C=Nc2cccc(O)c2)c(O)n1-c1ccc2c(c1)OCO2", "hERG current change (%, negative = inhibition) at 10uM": 13.3}
{"smiles": "COc1cc(C(=O)NCc2ccc(S(N)(=O)=O)cc2)ccc1OCC(=O)Nc1cccc(C(F)(F)F)c1", "hERG current change (%, negative = inhibition) at 10uM": 15.5}
{"smiles": "CCOC(=O)C1=C(C)NC(C)=C(C(=O)OCC)C1C(=O)OCC(=O)NC", "hERG current change (%, negative = inhibition) at 10uM": 15.5}
{"smiles": "CSc1ccccc1C(=O)N1CCN(c2cccc(Cl)c2)CC1", "hERG current change (%, negative = inhibition) at 10uM": 11.6}
{"smiles": "COc1ccc(N(CC(=O)NCCC2=CCCCC2)S(C)(=O)=O)cc1", "hERG current change (%, negative = inhibition) at 10uM": -16.1}
{"smiles": "CCN(CC)CCOC(=O)C(c1ccccc1)c1ccccc1.Cl", "hERG current change (%, negative = inhibition) at 10uM": -52.2}
{"smiles": "COc1ccc(CCN(Cc2cc3cccc(C)c3[nH]c2=O)C(=O)NC2CCCCC2)cc1OC", "hERG current change (%, negative = inhibition) at 10uM": -25}
{"smiles": "O=C(/C=C/c1ccc(Cl)cc1)N(Cc1cccs1)C1CCS(=O)(=O)C1", "note": "(stereo not shown)", "hERG current change (%, negative = inhibition) at 10uM": -72.8}
{"smiles": "CCCCn1c(=O)c(-c2ccccc2)c(O)c2ccccc21", "hERG current change (%, negative = inhibition) at 10uM": 9.13}
{"smiles": "COc1cc([N+](=O)[O-])c(OC)cc1SCc1n[nH]c(=S)n1-c1ccc(F)cc1", "hERG current change (%, negative = inhibition) at 10uM": -0.78}
{"smiles": "CN(C(=O)c1ccc(NC(=O)Cc2ccc(NC(=O)C3CCN(C(=O)C4CCCCC4)CC3)cc2)cc1)C1CC1", "hERG current change (%, negative = inhibition) at 10uM": 8.45}
{"smiles": "N#Cc1cc(-c2ccc(Cl)cc2)cnc1Sc1ccc(F)cc1", "hERG current change (%, negative = inhibition) at 10uM": 10.6}
{"smiles": "CCCCn1nnnc1SCC(=O)Nc1sc2c(c1C#N)CCCC2", "hERG current change (%, negative = inhibition) at 10uM": 2.62}
{"smiles": "O=C(NCCN1CCN(C(=O)c2cccc(Br)c2)CC1)C(=O)Nc1ccc(Br)cc1", "hERG current change (%, negative = inhibition) at 10uM": -42.1}
{"smiles": "Cc1ccc(O)c(C(=O)CC(=O)c2ccc(C(C)(C)C)cc2)c1", "hERG current change (%, negative = inhibition) at 10uM": 15}
{"smiles": "Cc1ccc(Cl)cc1NC(C#N)c1ccccc1", "note": "(stereo not shown)", "hERG current change (%, negative = inhibition) at 10uM": -10}
{"smiles": "CC1Cc2nc(SCC(=O)N3CCN(c4ccccc4)CC3)n(CCc3ccccc3)c(=O)c2S1", "note": "(stereo not shown)", "hERG current change (%, negative = inhibition) at 10uM": -47.1}
{"smiles": "CCSc1nnc(NC(=O)C2CC=CCC2C(=O)O)s1", "note": "(stereo not shown)", "hERG current change (%, negative = inhibition) at 10uM": 8.96}
{"smiles": "CC1CCN(C(c2cc3cc4c(cc3[nH]c2=O)OCO4)c2nnnn2CC2CCCO2)CC1", "note": "(stereo not shown)", "hERG current change (%, negative = inhibition) at 10uM": -3.99}
{"smiles": "CN(C)CCOc1ccc2c(c1)Sc1ccccc1CC2=O.Cl", "hERG current change (%, negative = inhibition) at 10uM": -64.8}
{"smiles": "COc1cc2[nH]c(=O)n(CCC(=O)NCc3cccnc3)c(=O)c2cc1OC", "hERG current change (%, negative = inhibition) at 10uM": 2.55}
{"smiles": "O=C(COC(=O)/C=C/c1ccccc1)Nc1ccccc1Br", "hERG current change (%, negative = inhibition) at 10uM": -10.7}
{"smiles": "CN1CCCN(C(=O)CSc2ccccc2)CC1", "hERG current change (%, negative = inhibition) at 10uM": 7.75}
{"smiles": "COc1cc(/C=N/NC(=O)C(=O)N2CCCCCC2)ccc1O", "hERG current change (%, negative = inhibition) at 10uM": 7.51}
{"smiles": "NNc1nnc2c3cc(F)ccc3n(Cc3ccccc3)c2n1", "hERG current change (%, negative = inhibition) at 10uM": -22.4}
{"smiles": "Cn1nc(-c2ccc(Cl)cc2)c2cc(C(=O)N3CCCC3)sc21", "hERG current change (%, negative = inhibition) at 10uM": -1.15}
{"smiles": "C[N+]1(CC(=O)Nc2ccc(F)cc2)CCN(C(=O)c2ccco2)CC1.[Cl-]", "hERG current change (%, negative = inhibition) at 10uM": 13.2}
{"smiles": "CCN(CC(=O)Nc1c(F)cccc1F)C(=O)c1ccc(-c2ccccc2)cc1", "hERG current change (%, negative = inhibition) at 10uM": -22.9}
{"smiles": "O=C(CSc1nnc(-c2ccc(C(F)(F)F)cn2)s1)c1ccc(Cl)cc1", "hERG current change (%, negative = inhibition) at 10uM": 5.3}
{"smiles": "CCc1ccc(NC(=O)N(CCOC)C2CCN(C(C)=O)CC2)cc1", "hERG current change (%, negative = inhibition) at 10uM": -31.2}
{"smiles": "O=c1c2ccccc2nc(/C=C/c2ccc(O)cc2)n1-c1cccc(O)c1", "hERG current change (%, negative = inhibition) at 10uM": 12.9}
{"smiles": "CC(OC(=O)c1cc(S(=O)(=O)N2CCOCC2)ccc1F)C(=O)NCc1ccc2c(c1)OCO2", "note": "(stereo not shown)", "hERG current change (%, negative = inhibition) at 10uM": -24.7}
{"smiles": "Cc1ccc(C(=O)N2CC(C(=O)O)C2)cc1", "hERG current change (%, negative = inhibition) at 10uM": 11.3}
{"smiles": "CC(C)CCNC(=O)[C@@H](NC(=O)c1c(F)cccc1F)C(C)C", "hERG current change (%, negative = inhibition) at 10uM": 0.718}
{"smiles": "O=[N+]([O-])c1ccc(O)c2ncccc12", "hERG current change (%, negative = inhibition) at 10uM": 9.28}
{"smiles": "COc1ccc(-n2nnc3c(=O)n(CC(=O)N4CCC(Cc5ccccc5)CC4)cnc32)cc1", "hERG current change (%, negative = inhibition) at 10uM": 13.8}
{"smiles": "COC(=O)c1cnc(Oc2ccc(NC(=O)NC(=O)c3c(F)cccc3F)cc2)cc1C(F)(F)F", "hERG current change (%, negative = inhibition) at 10uM": 9.34}
{"smiles": "COc1ccc(-n2c(C)cc(-c3csc(N)n3)c2C)cc1", "hERG current change (%, negative = inhibition) at 10uM": -15.2}
{"smiles": "O=C(NCc1ccco1)c1ccc(-c2ccccc2Cl)o1", "hERG current change (%, negative = inhibition) at 10uM": -30.6}
{"smiles": "COC(=O)N/N=C\\c1ccc(OC/C=C/c2ccccc2)c(OC)c1", "hERG current change (%, negative = inhibition) at 10uM": 6.04}
{"smiles": "Cc1ccc(S(=O)(=O)NCCSc2nnc(N)s2)cc1", "hERG current change (%, negative = inhibition) at 10uM": 0.194}
{"smiles": "CCN(CC(=O)NCc1cccs1)C(=O)COc1ccc(C(C)=O)cc1", "hERG current change (%, negative = inhibition) at 10uM": -45.1}
{"smiles": "Nc1c(N=Nc2cccc(Cl)c2)c(=O)[nH]n1-c1ccccc1", "hERG current change (%, negative = inhibition) at 10uM": -2.35}
{"smiles": "COc1ccc(C(=O)Nc2c(N)nc(SCC(=O)N3CCCCCC3)[nH]c2=O)cc1OC", "hERG current change (%, negative = inhibition) at 10uM": 0.918}
{"smiles": "N#C/C(=N\\Nc1cccc(Cl)c1)C(=O)c1ccccc1", "hERG current change (%, negative = inhibition) at 10uM": -11.2}
{"smiles": "O=C(NN1CCOCC1)c1cccc2ccccc12", "hERG current change (%, negative = inhibition) at 10uM": 1.68}
{"smiles": "CCCc1ccc2oc(C(=O)N3CCC(O)CC3)c(C)c2c1", "hERG current change (%, negative = inhibition) at 10uM": -12.2}
{"smiles": "COc1ccc(C(=O)C(O)C(c2ccc(C)cc2)N2CCOCC2)cc1OC", "note": "(stereo not shown)", "hERG current change (%, negative = inhibition) at 10uM": 8.95}
{"smiles": "COC(=O)c1cc(C(=O)NCC2CCCCC2)cc([N+](=O)[O-])c1", "hERG current change (%, negative = inhibition) at 10uM": -18.2}
{"smiles": "COc1cc2[nH]c(=O)n(CCC(=O)N3CC=C(c4ccccc4)CC3)c(=O)c2cc1OC", "hERG current change (%, negative = inhibition) at 10uM": -1}
